# Where “and” joins values, the source holds several entries; their conditions need not be identical. Equal values may be shown once. Hit rate of the full screen: of about 410,000 compounds, about 6,400 (1.6%) were called active. This list was built around the results that the source calls inconclusive (neither active nor inactive); the mix of calls is not that of the screen. Calls come from the whole dose curve; as a rule, active = well fitted inhibition curve with a large enough effect; inconclusive = small, poorly fitted or top-dose-only effect; inactive = no such curve, though single readings can be large or run the other way. Potencies beside an inconclusive call are fits to weak or partial responses and may not hold up.
# Molecular target: Glucagon-like peptide 1 receptor (Homo sapiens) (UniProt P43220)
# Experiment: qHTS of GLP-1 Receptor Inverse Agonists (Inhibition Mode); note: nearly all actives have a fitted effect of over 55% in size
# Settings: HEK293 GLP-1R CRE-luciferase, luminescence, 24 h, GLP-1R form is constitutively active; activity change, negative = inhibition: at 38.3 µM (top of the series) unless noted
# In short: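 HEK293 cells stably co-expressing constitutively active GLP-1R and a cAMP-responsive luciferase reporter were seeded in DMEM with 10% Nu serum, given compounds after 12 h, and incubated 24 h at 37 deg C. Luminescence was then read.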
# % is set by controls: 0 for no effect and ±100 for the full control effect; potency is the fitted concentration of half-maximal effect; tags give direction and shape of the fitted curve.
# Chain of UniProt P43220 (P43220 whole entry, looked up): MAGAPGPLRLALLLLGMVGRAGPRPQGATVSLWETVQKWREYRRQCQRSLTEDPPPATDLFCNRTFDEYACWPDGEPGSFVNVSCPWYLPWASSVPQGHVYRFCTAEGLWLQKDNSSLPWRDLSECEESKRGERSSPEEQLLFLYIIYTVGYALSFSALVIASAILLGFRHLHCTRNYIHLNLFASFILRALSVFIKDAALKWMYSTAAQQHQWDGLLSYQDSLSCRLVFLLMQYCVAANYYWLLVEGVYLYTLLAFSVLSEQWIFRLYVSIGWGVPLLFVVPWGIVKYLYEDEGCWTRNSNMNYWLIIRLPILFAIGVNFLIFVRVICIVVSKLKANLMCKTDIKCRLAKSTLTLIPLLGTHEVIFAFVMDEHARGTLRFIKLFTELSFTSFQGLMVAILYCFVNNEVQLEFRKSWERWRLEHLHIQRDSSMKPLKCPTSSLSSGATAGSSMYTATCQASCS
Structure (SMILES),Potency,"activity change, negative = inhibition"
Cc1ccc(S(=O)(=O)Nc2ccccc2/C=N/c2nc3ccccc3n2C(C)C)cc1,"inconclusive: 1.58 µM [inhibitor, full curve, poor fit]",–
CCCCSCCCNC(=O)Nc1ccc(C)c(C)c1,"inconclusive: 10 µM [inhibitor, partial curve, poor fit]",–
O=C(CCc1ccccc1Cl)Nc1ccc(S(=O)(=O)N2CCOCC2)cc1,"inconclusive: 28.2 µM [inhibitor, single point]",–
COc1ccc(-c2nc3ccccc3o2)cc1NC(=O)COc1ccc(C(C)(C)C)cc1,–,inactive: 16.4%
COc1cccc(N2CC(NC(=O)c3ccc(S(=O)(=O)N4CCCCC4)cc3)CC2=O)c1 (centres undefined),–,inactive: -6.14%
CCOc1ccc(S(=O)(=O)NCC(c2ccco2)S(=O)(=O)c2ccc(F)cc2)cc1 (centres undefined),–,inactive: -24.4%
Cc1cccc2cc3c(NC(=O)C(C)(C)C)nn(CC(C)C)c3nc12,"inconclusive: 12.6 µM [inhibitor, partial curve, poor fit]",–
CC1CCCCC1NC(=O)CN1C(=O)CSc2cc(S(=O)(=O)N3CCCCCC3)ccc21 (centres undefined),"inconclusive: 28.2 µM [inhibitor, single point]",–
CN(C)S(=O)(=O)c1cccc(NC(=O)COC(=O)/C=C/c2ccc(Br)o2)c1,–,inactive: -9.63%
CCOC(=O)c1cc2c(=O)n3ccccc3nc2n(CC2CCCO2)c1=NC(=O)c1ccc(C)cc1 (centres undefined),–,inactive: 14%
O=[N+]([O-])c1ccc(C(c2sc3nc(-c4ccco4)nn3c2O)N2CCN(c3cccc(Cl)c3)CC2)cc1 (centres undefined),"inconclusive: 28.2 µM [inhibitor, single point]",–
Cc1ccc(C)c(Cn2nc(-c3cc(C)ccc3C)ccc2=O)c1,"inconclusive: 22.4 µM [inhibitor, single point] and inconclusive: 22.4 µM [inhibitor, partial curve, poor fit]",–
O=C(CSc1nnc(CNC(=O)c2ccc(F)cc2)o1)NCc1ccccc1Cl,–,inactive: -12.4%
CCOC(=O)CCCc1ccc(/C(C)=N/NC(N)=S)cc1,"inconclusive: 2.51 µM [inhibitor, full curve, poor fit]",–
O=C(Nc1ccc(Oc2ccccc2)nc1)C1CCN(Cc2ccco2)CC1,"inconclusive: 31.6 µM [inhibitor, single point]",–
CCc1ccc(Nc2cnn(-c3nc4ccccc4s3)c(=O)c2Cl)cc1,–,inactive: -4.38%
CN(Cc1ccccc1)C(=O)c1ncn(C)c1C(=O)N(C)Cc1ccccc1,–,inactive: 9.24%
O=C(Nc1ccc2c(c1)OCCO2)C(c1ccnc2ccccc12)N1CCN(c2ccc(F)cc2)CC1 (centres undefined),"inconclusive: 10 µM [inhibitor, partial curve, poor fit]",–
CC(C)C[C@@H](CNCC(=O)[C@H](CC(C)C)NC(=O)c1[nH]cnc1C(=O)N[C@H](CN)CC(C)C)NC(=O)c1nc[nH]c1C(=O)N[C@@H](CC(=O)O)C(=O)O,–,inactive: 11.2%
O=C(NCCc1ccccc1)c1ccc(CSc2nc3ccncc3n2Cc2ccc(F)cc2)cc1,"inconclusive: 28.2 µM [inhibitor, single point]",–

Structure (SMILES),Potency,"activity change, negative = inhibition"
Cc1ccccc1S(=O)(=O)Cc1ccc(C(=O)NCCCN2CCCC(C)C2)o1 (centres undefined),"inconclusive: 3.16 µM [inhibitor, full curve, poor fit]",–
COc1ccccc1C/C(N)=N/OC(=O)COc1cccc(C)c1C,"inconclusive: 10 µM [inhibitor, partial curve, poor fit]",–
COc1ccc(CCNC2CC(C)N(C)CC2C)cc1OC (centres undefined),"inconclusive: 3.16 µM [inhibitor, partial curve, poor fit]",–
CN(CC(=O)Nc1ccc(Cl)c(C(F)(F)F)c1)C(=O)CCCNC(=O)c1ccc(Cl)cc1,"inconclusive: 12.6 µM [inhibitor, single point]",–
CCOc1cc(/C=N/N=C(\N)c2nonc2N)cc(Br)c1OCc1cccc2ccccc12,"inconclusive: 10 µM [inhibitor, partial curve]",–
CCSc1nc2sc3c(c2c(=O)n1CC)CCC3,"inconclusive: 28.2 µM [inhibitor, single point]",–
O=C(NCCN1CCc2ccccc2C1)C1CCN(S(=O)(=O)N2CCCCC2)CC1,–,inactive: -11.4%
O=C(NCc1ccccc1F)C(c1ccccc1)c1ccccc1,"inconclusive: 28.2 µM [inhibitor, partial curve, poor fit]",–
Cc1c(C(=O)NC(C)CCc2ccccc2)cccc1[N+](=O)[O-] (centres undefined),"inconclusive: 28.2 µM [inhibitor, single point]",–
Cc1ccc(S(=O)(=O)N(C)c2ccc3sc(C)nc3c2)cc1,"inconclusive: 7.08 µM [inhibitor, partial curve]",–
C=C(C)COc1ccc(-c2n[nH]c(C)c2-c2ccc(OC)cc2)c(O)c1,"inconclusive: 7.08 µM [inhibitor, partial curve, poor fit]",–
O=C(OCC(=O)N1CCCCC1)c1cccs1,"inconclusive: 15.8 µM [inhibitor, single point]",–
CC(OC(=O)c1cc2ccccc2[nH]1)C(=O)N(C)c1ccccc1 (centres undefined),"inconclusive: 11.2 µM [inhibitor, partial curve, poor fit]",–
Cc1ccc(CCNC(=O)C2CCN(S(=O)(=O)c3ccc4c(c3)NC(=O)C(C)S4)CC2)cc1 (centres undefined),"inconclusive: 12.6 µM [inhibitor, single point]",–
COc1cc(N)c(Cl)cc1C(=O)OCC(=O)NCC1CCCCC1,"inconclusive: 4.47 µM [inhibitor, partial curve, poor fit]",–
O=C(CN1CCCCCCC1)Nc1cc(Cl)cc(Cl)c1,"inconclusive: 5.01 µM [inhibitor, full curve]",–
CCSc1ccc([C@@H]2[C@@H]3C(=O)N(CC)C(=O)[C@@H]3[C@]3(C(=O)OC)CCCCN23)cc1,"inconclusive: 28.2 µM [inhibitor, single point]",–
Cc1[nH]n2c(=O)c(C#N)c(-c3ccccc3)nc2c1-c1ccccc1,"inconclusive: 3.16 µM [inhibitor, partial curve]",–
CCC1CCCCN1CCCNC(=O)c1ccc2c(c1)N(Cc1cccc(C)c1)C(=O)c1ccccc1S2(=O)=O (centres undefined),"inconclusive: 12.6 µM [inhibitor, single point]",–

# Source: PubChem BioAssay AID624417 (National Center for Advancing Translational Sciences (NCATS), 2012)
